The source gives no read counts; variants with many changes may rest on few reads.
B1: OR4K15 (parent)
chain: GUUAACGGUCAUAGGCCAUGGAAACUAGGAGCACCAUUUCGCUGCCAGUGAAGAAAUGAACAAAGAAAAUCUGGGCCAGGCAGGCAUCAAAAGAAAUAGUCUUGCGCUCAACCAGAAAGUCUGUAAUCAUUUUAAGGGUA

Variants of: B1
Experiment: self-cleavage, relative activity (ratio to wild type); higher = more cleavage; in vitro, sequencing; the parent is a self-cleaving ribozyme

Row | Variant | self-cleavage
1 | GUUAACGGUCAUAGGCCAUGGAAACUAGGAGCACCAUUUCGCUGCCAGUGAAGAAAUGAGCAAGGAAAAUCUGGGCCAGGCAGGCAUCAGAAGAAAUAGUCUUGCGCUCAACCAGAAAGUCUGUAACCAUUUUAAGGGUA | 0.18
2 | GUUAACGGUCAUAGGCCAUGGAAACUAGGAGCACCAUUUCGCUGCCAGUGAAGAAAUGAGCAAGGAAAAUCUGGGCCAGGCAGGCAUCAAAAGAAAUAGUCUUGCGCUCAACCUGAAAGUCUGUAAUCAUUUUAAGGGUA | 0.1
3 | GUUAACGGUCAUAGGCCAUGGAAACUAGGAGCACCAUUUCGCUGCCAGUGAAGAAAUGAGCAAAGGAAAUCUGGGCCAGGCAGGCAUCAGAAGAAAUAGUCUUGCGCUCAACCAGAAAGUCUGUAAUCAUCUUAAGGGUA | 0.49
4 | GUUAACGGUCAUAGGCCAUGGAAACUAGGAGCACCAUUUCGCUGCCAGUGAAGAAAUGAGCAAAGGAAAUCUGGGCCAGGCAGGCAUCAAAAGAAAUAGUCCUGCGCUCAACCAGAAAGUCUGUAAUCAUUUUAAGGGUA | 1.48
5 | GUUAACGGUCAUAGGCCAUGGAAACUAGGAGCACCAUUUCGCUGCCAGUGAAGAAAUGAGCAAAGUAAAUCUGGGCCAGGCAGGCAUCAAAAGAAACAGUCUUGCGCCCAACCAGAAAGUCUGUAAUCAUUUUAAGGGUA | 0.02
6 | GUUAACGGUCAUAGGCCAUGGAAACUAGGAGCACCAUUUCGCUGCCAGUGAAGAAAUGAGCAAAGAGAAUCUGGGCCAGGCAGGCAUCAAAAGAAAUAGCCUUGCGCUCAACCAGUAAGUCUGUAAUCAUUUUAAGGGUA | 0.64
7 | GUUAACGGUCAUAGGCCAUGGAAACUAGGAGCACCAUUUCGCUGCCAGUGAAGAAAUGAGCAAAGAGAAUCUGGGCCAGGCAGGCAUCAAAAGAAAUAGUCUUGCGCUCAACCAGAAAGUCAGUAAUCAUUUUAAGGGUA | 1.48
8 | GUUAACGGUCAUAGGCCAUGGAAACUAGGAGCACCAUUUCGCUGCCAGUGAAGAAAUGAGCAAAGAUAAUCUGGGCCAGGCAGGCAUCAAAAGAAAUAGUCUUGCGCUCAACCAGAAAGUCUGUAAUCAUCUUAAGGGUA | 1.45
9 | GUUAACGGUCAUAGGCCAUGGAAACUAGGAGCACCAUUUCGCUGCCAGUGAAGAAAUGAGCAAAGAAGUUCUGGGCCAGGCAGGCAUCAAAAGAAAUAGUCUUGCGCUCAACCAGAAAGUCUGUAAUCAUUUUAAGGGUA | 1.28
10 | GUUAACGGUCAUAGGCCAUGGAAACUAGGAGCACCAUUUCGCUGCCAGUGAAGAAAUGAGCAAAGAAGAUCUGGGCCAGGCAGGCAUCAAAAGAAAUAGUCUUGCGCUCAGCCAGAAAGUCUGUAAUCAUUUUAAGGGUA | 0.06
11 | GUUAACGGUCAUAGGCCAUGGAAACUAGGAGCACCAUUUCGCUGCCAGUGAAGAAAUGAGCAAAGAAGAUCUGGGCCAGGCAGGCAUCAAAAGAAAUAGUCUUGCGCUCAACCAGAAGGUCUGUAAUCUUUUUAAGGGUA | 0.42
12 | GUUAACGGUCAUAGGCCAUGGAAACUAGGAGCACCAUUUCGCUGCCAGUGAAGAAAUGAGCAAAGAAGAUCUGGGCCAGGCAGGCAUCAAAAGAAAUAGUCUUGCGCUCAACCAGAAAGUCUGUAAUCAUUUUGAGGGUA | 0.93
13 | GUUAACGGUCAUAGGCCAUGGAAACUAGGAGCACCAUUUCGCUGCCAGUGAAGAAAUGAGCAAAGAAGAUCUGGGCCAGGCAGGCAUCAAAAGAAAUAGUCUUGCGCUCAACCAGAAAGUCCGUAAUCAUUUUAAGGGUA | 0.98
14 | GUUAACGGUCAUAGGCCAUGGAAACUAGGAGCACCAUUUCGCUGCCAGUGAAGAAAUGAGCAAAGAAGAUCUGGGCCAGGCAGGCAUCAAAAGAAAUAGUCUUGCGCUCAACCAGAAAGUCUGUAAUCACUUUAAGGGUA | 0.53
15 | GUUAACGGUCAUAGGCCAUGGAAACUAGGAGCACCAUUUCGCUGCCAGUGAAGAAAUGAGCAAAGAAUAUCUGGGCCAGGCAGGCAUCCAAAGAAAUAGUCUUGCGCUCAACCAGGAAGUCUGUAAUCAUUUUAAGGGUA | 0.4
16 | GUUAACGGUCAUAGGCCAUGGAAACUAGGAGCACCAUUUCGCUGCCAGUGAAGAAAUGAGCAAAGAAUAUCUGGGCCAGGCAGGCAUCAAAGGAAGUAGUCGUGCGCUCAACCAGAAAGCCUGUAAUCAUUUUAAGGGUA | 0.03
17 | GUUAACGGUCAUAGGCCAUGGAAACUAGGAGCACCAUUUCGCUGCCAGUGAAGAAAUGAGCAAAGAAUAUCUGGGCCAGGCAGGCAUCAAAAGAAAUAGUCCUGCGCUCAACCAGAAAGUCUGUAAUCAUUUUAAGGGUA | 1.68
18 | GUUAACGGUCAUAGGCCAUGGAAACUAGGAGCACCAUUUCGCUGCCAGUGAAGAAAUGAGCAAAGAAAGUCUGGGCCAGGCAGGCAUCAGAAGAAAUAGCCUUGCGCUCAACCAGAAAGUCUGUGAUCAUUUUAAGGGUA | 0.88
19 | GUUAACGGUCAUAGGCCAUGGAAACUAGGAGCACCAUUUCGCUGCCAGUGAAGAAAUGAGCAAAGAAAGUCUGGGCCAGGCAGGCACCAAAAGAAGUAGUCUUGCGCUCAACCAGAAAGUCUGUAAUCAUUUUAAGGGUA | 2.08
20 | GUUAACGGUCAUAGGCCAUGGAAACUAGGAGCACCAUUUCGCUGCCAGUGAAGAAAUGAGCAAAGAAAGUCUGGGCCAGGCAGGCACCAAAAGAAAUAGUCUUGCGCUCAACCAGGAAGUCUGUAAUCAUUUUAAGGGUA | 0.14
21 | GUUAACGGUCAUAGGCCAUGGAAACUAGGAGCACCAUUUCGCUGCCAGUGAAGAAAUGAGCAAAGAAAGUCUGGGCCAGGCAGGCAUCAAAAGAAAUAGUCUCGCGCUCAACCAGAAGGUCUGUAAUCAUUUUAAGGGUA | 0.36

Row | Variant | self-cleavage
22 | GUUAACGGUCAUAGGCCAUGGAAACUAGGAGCACCAUUUCGCUGCCAGUGAAGAAAUGAGCAAAGAAAGUCUGGGCCAGGCAGGCAUCAAAAGAAAUAGUCUUGCGCUCAACCAGAAAGUCUGUAACCAUUUUAAGGGUA | 0.58
23 | GUUAACGGUCAUAGGCCAUGGAAACUAGGAGCACCAUUUCGCUGCCAGUGAAGAAAUGAGCAAAGAAAGUCUGGGCCAGGCAGGCAUCAAAAGAAAUAGUCUUGCGCUCAACCAGAAAGUCUGUAAUCACUUUACGGGUA | 1.68
24 | GUUAACGGUCAUAGGCCAUGGAAACUAGGAGCACCAUUUCGCUGCCAGUGAAGAAAUGAGCAAAGAAAAUCUGGGCCGGGCAGGCUACAAAAGAAAUAGUCUUGCGCUCAACCAGAAAGUCUGUAAUCAUUUUAAGGGUA | 0.26
25 | GUUAACGGUCAUAGGCCAUGGAAACUAGGAGCACCAUUUCGCUGCCAGUGAAGAAAUGAGCAAAGAAAAUCUGGGCCGGGCAGGCAUCAAAAGAAAUAGUCUUGCGCUAAACCAGAAAGUCUGUAAUCAUUUUAAGGGUA | 0.13
26 | GUUAACGGUCAUAGGCCAUGGAAACUAGGAGCACCAUUUCGCUGCCAGUGAAGAAAUGAGCAAAGAAAAUCUGGGCCGGGCAGGCAUCAAAAGAAAUAGUCUUGCGCCCAACCAGAAAGUCUGUAGUCAUUUUAAGGGUA | 0.01
27 | GUUAACGGUCAUAGGCCAUGGAAACUAGGAGCACCAUUUCGCUGCCAGUGAAGAAAUGAGCAAAGAAAAUCUGGGCCGGGCAGGCAUCAAAAGAAAUAGUCUUGCGCUCAACCAGAAAGUCUGUAACCAUUUUAAGGGUA | 0.02
28 | GUUAACGGUCAUAGGCCAUGGAAACUAGGAGCACCAUUUCGCUGCCAGUGAAGAAAUGAGCAAAGAAAAUCUGGGCCGGGCAGGCAUCAAAAGAAAUAGUCUUGCGCUCAACCAGAAAGUCUGUAAUCACUUUAAGGGUA | 0.21
29 | GUUAACGGUCAUAGGCCAUGGAAACUAGGAGCACCAUUUCGCUGCCAGUGAAGAAAUGAGCAAAGAAAAUCUGGGCCUGGCAGGCAUCGAAAGAAAUAGUCUUGCGCCCAACCAGAAAGUCUGUAAUCAUUUUAAGGGUA | 0.01
30 | GUUAACGGUCAUAGGCCAUGGAAACUAGGAGCACCAUUUCGCUGCCAGUGAAGAAAUGAGCAAAGAAAAUCUGGGCCUGGCAGGCAUCAAAAGAGAUAGUCUAGCGCUCAACCAGAAAGCCUGUAAUCAUUUUAAGGGUA | 0.1
31 | GUUAACGGUCAUAGGCCAUGGAAACUAGGAGCACCAUUUCGCUGCCAGUGAAGAAAUGAGCAAAGAAAAUCUGGGCCAGGCGGGCAUCAACAGAAAUAGCCUUGCGCUCAACCGGAAAGUCUGUAAUCAUUUUAAGGGUA | 0.11
32 | GUUAACGGUCAUAGGCCAUGGAAACUAGGAGCACCAUUUCGCUGCCAGUGAAGAAAUGAGCAAAGAAAAUCUGGGCCAGGCUGGCAUCAAAAGAAAUAGUCUUGCGCUCAACCAGAAAGUCUGUAAUCAUUUUAUGGGUA | 0.04
33 | GUUAACGGUCAUAGGCCAUGGAAACUAGGAGCACCAUUUCGCUGCCAGUGAAGAAAUGAGCAAAGAAAAUCUGGGCCAGGCUGGAAUCAAAAGAAAUAGUCUUGCGCUCAACCAGAAAGUCUGUAACCAUUUUAAGGGUA | 0.1
34 | GUUAACGGUCAUAGGCCAUGGAAACUAGGAGCACCAUUUCGCUGCCAGUGAAGAAAUGAGCAAAGAAAAUCUGGGCCAGGCAGGCGUCAGAAGAAAUAGUCUUGCGCUCAACCAGAAAGUCUGUAAUCAUUUUAAGGGUA | 0.81
35 | GUUAACGGUCAUAGGCCAUGGAAACUAGGAGCACCAUUUCGCUGCCAGUGAAGAAAUGAGCAAAGAAAAUCUGGGCCAGGCAGGCGUCAAAAGAAAUAGUCUUGCGCUCAACCAAAAAGUCUGUAAUCAUUUUAAGGGUA | 0.07
36 | GUUAACGGUCAUAGGCCAUGGAAACUAGGAGCACCAUUUCGCUGCCAGUGAAGAAAUGAGCAAAGAAAAUCUGGGCCAGGCAGGCGUCAAAAGAAAUAGUCCUGCGCUCAACCAGAAAGUCAGUAGUCAUUUUAAGGGUA | 0.38
37 | GUUAACGGUCAUAGGCCAUGGAAACUAGGAGCACCAUUUCGCUGCCAGUGAAGAAAUGAGCAAAGAAAAUCUGGGCCAGGCAGGCUUCAAAAGAAAUAGUCUUGCGCCCAACCAGAAAGUCUGUAAUCAUUUUAAGGGUA | 0.01
38 | GUUAACGGUCAUAGGCCAUGGAAACUAGGAGCACCAUUUCGCUGCCAGUGAAGAAAUGAGCAAAGAAAAUCUGGGCCAGGCAGGCAUCUAAAGAAAUAGUCUUGCGCUCAACCAGAAAGUCUGUGAUCAUUUUAAGGGUA | 0.51
39 | GUUAACGGUCAUAGGCCAUGGAAACUAGGAGCACCAUUUCGCUGCCAGUGAAGAAAUGAGCAAAGAAAAUCUGGGCCAGGCAGGCAUCAGAAGAGAUAGUCUUGCGCUCAACCAGAAAGUCUGUAAUCAUUUUAAGGGUA | 0.95
40 | GUUAACGGUCAUAGGCCAUGGAAACUAGGAGCACCAUUUCGCUGCCAGUGAAGAAAUGAGCAAAGAAAAUCUGGGCCAGGCAGGCAUCAGAAGAAAUAGUCUUGCGCUCAACCAGCAAGUCUGUAAUCAUUUUAAGGGUA | 0.01
41 | GUUAACGGUCAUAGGCCAUGGAAACUAGGAGCACCAUUUCGCUGCCAGUGAAGAAAUGAGCAAAGAAAAUCUGGGCCAGGCAGGCAUCAUGAGAAAUAGUCUUGCGCUCAACCAGAAAGUCUGUAAUCAUUUUAAGGGUA | 1.95

— the RNAGym collection of RNA variant scans (doi:10.7554/elife.90254)
